Measurements: paper PMC3526275
Results are given in words; binding and its absence hold for the method and conditions named. For part of these data: In cells and extracts the contact can be indirect. Some results given as binding are weak or reduced against the parent protein; the word gives no strength. For part of these data: Tags and fused reporters may be left off the sequences shown.

Sequences of proteins named here, by UniProt entry; tags and fusion partners are left off. A change or cut given only in a name is not applied to a line headed by its entry. Residues count along the entry.
UniProt Q5DW34: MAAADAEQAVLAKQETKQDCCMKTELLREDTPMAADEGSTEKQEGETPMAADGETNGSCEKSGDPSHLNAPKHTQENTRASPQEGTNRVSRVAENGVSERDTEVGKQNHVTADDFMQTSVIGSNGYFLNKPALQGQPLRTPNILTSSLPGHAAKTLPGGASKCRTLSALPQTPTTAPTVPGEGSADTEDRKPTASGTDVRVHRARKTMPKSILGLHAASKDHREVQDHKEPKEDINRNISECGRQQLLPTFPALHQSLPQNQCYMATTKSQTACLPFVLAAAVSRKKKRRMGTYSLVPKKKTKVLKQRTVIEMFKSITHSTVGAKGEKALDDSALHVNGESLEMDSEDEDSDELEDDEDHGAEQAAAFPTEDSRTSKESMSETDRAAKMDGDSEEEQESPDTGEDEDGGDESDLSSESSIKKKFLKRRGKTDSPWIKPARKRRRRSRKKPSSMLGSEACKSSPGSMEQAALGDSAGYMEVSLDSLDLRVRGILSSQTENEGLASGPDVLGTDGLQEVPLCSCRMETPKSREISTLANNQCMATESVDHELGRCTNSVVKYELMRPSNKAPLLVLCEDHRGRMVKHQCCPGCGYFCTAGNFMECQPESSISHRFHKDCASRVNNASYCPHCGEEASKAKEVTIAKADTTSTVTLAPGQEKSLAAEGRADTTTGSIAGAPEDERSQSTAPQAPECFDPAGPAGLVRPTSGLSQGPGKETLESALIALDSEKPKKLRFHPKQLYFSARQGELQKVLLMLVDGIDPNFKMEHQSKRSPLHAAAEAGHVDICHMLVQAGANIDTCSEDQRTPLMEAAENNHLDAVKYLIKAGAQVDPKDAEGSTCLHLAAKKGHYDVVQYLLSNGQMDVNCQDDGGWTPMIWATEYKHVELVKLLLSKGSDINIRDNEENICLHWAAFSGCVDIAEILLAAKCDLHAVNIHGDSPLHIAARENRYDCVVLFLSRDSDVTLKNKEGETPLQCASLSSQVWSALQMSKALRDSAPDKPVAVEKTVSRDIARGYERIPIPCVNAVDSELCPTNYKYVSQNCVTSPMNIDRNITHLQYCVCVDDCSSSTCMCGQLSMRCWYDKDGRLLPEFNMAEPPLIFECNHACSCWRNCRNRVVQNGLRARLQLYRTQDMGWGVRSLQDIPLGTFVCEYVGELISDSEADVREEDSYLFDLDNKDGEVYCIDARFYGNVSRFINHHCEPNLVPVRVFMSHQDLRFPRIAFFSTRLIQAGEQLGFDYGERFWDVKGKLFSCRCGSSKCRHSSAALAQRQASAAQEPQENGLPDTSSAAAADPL
UniProt Q86YI8: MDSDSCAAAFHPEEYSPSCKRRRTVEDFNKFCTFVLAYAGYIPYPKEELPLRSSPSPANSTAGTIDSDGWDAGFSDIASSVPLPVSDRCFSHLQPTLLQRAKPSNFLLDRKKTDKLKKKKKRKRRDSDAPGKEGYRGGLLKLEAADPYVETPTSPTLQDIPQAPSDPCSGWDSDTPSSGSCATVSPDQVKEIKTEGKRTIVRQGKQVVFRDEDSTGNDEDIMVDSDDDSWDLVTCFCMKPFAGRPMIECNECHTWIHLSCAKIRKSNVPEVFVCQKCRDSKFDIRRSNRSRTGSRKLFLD
ProtA-SPOC1 (amino acids 150–300): residues 150-300 of Q86YI8

B1: SUV39H1 (endogenous, C2C12) (enzyme, UniProt O54864 1-412)
chain: MAENLKGCSVCCKSSWNQLQDLCRLAKLSCPALGVSKKNLYDFEVEYLCDYKKIREQEYYLVKWRGYPDSENTWEPRQNLKCIRVLKQFHKDLERELVRRHRRSKPPRHLDPNLANYLVQKAKQRRALQRWEQELNAKRSHLGRITVENEVDLDGPPRSFVYINEYRVGEGITLNQVAVGCECQDCLLAPTGGCCPGASLHKFAYNDQGQVRLKAGQPIYECNSRCCCGYDCPNRVVQKGIRYDLCIFRTNDGRGWGVRTLEKIRKNSFVMEYVGEIITSEEAERRGQIYDRQGATYLFDLDYVEDVYTVDAAYYGNISHFVNHSCDPNLQVYNVFIDNLDERLPRIAFFATRTIWAGEELTFDYNMQVDPVDMESTRMDSNFGLAGLPGSPKKRVRIECKCGTTACRKYLF
B2: Luc-KAP-1 (amino acids 1–400) (domain or fragment, UniProt Q13263 1-400)
chain: MAASAAAASAAAASAASGSPGPGEGSAGGEKRSTAPSAAASASASAAASSPAGGGAEALELLEHCGVCRERLRPEREPRLLPCLHSACSACLGPAAPAAANSSGDGGAAGDGTVVDCPVCKQQCFSKDIVENYFMRDSGSKAATDAQDANQCCTSCEDNAPATSYCVECSEPLCETCVEAHQRVKYTKDHTVRSTGPAKSRDGERTVYCNVHKHEPLVLFCESCDTLTCRDCQLNAHKDHQYQFLEDAVRNQRKLLASLVKRLGDKHATLQKSTKEVRSSIRQVSDVQKRVQVDVKMAILQIMKELNKRGRVLVNDAQKVTEGQQERLERQHWTMTKIQKHQEHILRFASWALESDNNTALLLSKKLIYFQLHRALKMIVDPVEPHGEMKFQWDLNAWTK
B3: Luc-KAP-1 (amino acids 401–600) (domain or fragment, UniProt Q13263 401-600)
chain: SAEAFGKIVAERPGTNSTGPAPMAPPRAPGPLSKQGSGSSQPMEVQEGYGFGSGDDPYSSAEPHVSGVKRSRSGEGEVSGLMRKVPRVSLERLDLDLTADSQPPVFKVFPGSTTEDYNLIVIERGAAAAATGQPGTAPAGTPGAPPLAGMAIVKEEETEAAIGAPPTATEGPETKPVLMALAEGPGAEGPRLASPSGSTS
B4: Luc-KAP-1 (amino acids 601–835) (domain or fragment, UniProt Q13263 601-835)
chain: SGLEVVAPEGTSAPGGGPGTLDDSATICRVCQKPGDLVMCNQCEFCFHLDCHLPALQDVPGEEWSCSLCHVLPDLKEEDGSLSLDGADSTGVVAKLSPANQRKCERVLLALFCHEPCRPLHQLATDSTFSLDQPGGTLDLTLIRARLQEKLSPPYSSPQEFAQDVGRMFKQFNKLTEDKADVQSIIGLQRFFETRMNEAFGDTKFSAVLVEPPPMSLPGAGLSSQELSGGPGDGP

Tests used:
[1] = target: GLP (endogenous, C2C12) (mouse (endogenous in C2C12)) (UniProt Q5DW34); assay: co-IP; immunoprecipitation of endogenous GLP or SUV39H1 from C2C12 cell extracts, control antibody alongside; immunoblot for GLP, SUV39H1, SETDB1 and SPOC1
[2] = target: ProtA-SPOC1 (amino acids 150–300) (human) (UniProt Q86YI8); assay: LUMIER (luciferase co-precipitation); protein A and renilla luciferase fusion proteins coexpressed in HEK293 cells; protein A fusions captured on IgG-coated magnetic beads; copurified luciferase activity as Z-score, Z-score ≥ 0.5 indicates an interaction
[3] = target: ProtA-SPOC1 (amino acids 1–300) (human) (UniProt Q86YI8); assay: as above

| Binder | binding [1] | binding [2] | binding [3] |
| --- | --- | --- | --- |
| B1 | binds | – | – |
| B2 | – | binds | – |
| B3 | – | no binding | no binding |
| B4 | – | no binding | no binding |
